Assay results reported in patent US9486506B2 (Novo Nordisk A/S, priority 2011, dated 2016).
For at least one compound, name, drawing or mass did not settle the structure. Numbered stars: 1 amine (or outer) side, 2 acyl side, 3 side chain; on linkers, the order of the positions; unused ones are H or OH. Side chains are listed from the residue outwards. Peptide text beside a SMILES is read from it. * marks the point of attachment. C18 diacid = O=C(O)CCCCCCCCCCCCCCCCC(=O)*; C16 diacid = O=C(O)CCCCCCCCCCCCCCC(=O)*; γGlu = O=C(O)[C@H](CCC(=O)[*:2])N[*:1]; AEEA = NCCOCCOCC(=O)O

Test: Assay (II) ThT fibrillation assay for physical stability
Assay type: physicochemical
Conditions: pH 7.5

`CC(C)C[C@H](NC(=O)[C@H](Cc1c[nH]c2ccccc12)NC(=O)[C@H](CCCCNC(=O)CC[C@H](NC(=O)CC[C@H](NC(=O)COCCOCCNC(=O)COCCOCCNC(=O)CC[C@H](NC(=O)CCCCCCCCCCCCCCCCC(=O)O)C(=O)O)C(=O)O)C(=O)O)NC(=O)[C@@H](NC(=O)[C@H](Cc1ccccc1)NC(=O)[C@H](CCC(=O)O)NC(=O)[C@H](CCC(N)=O)NC(=O)[C@H](C)NC(=O)[C@H](CCCNC(=N)N)NC(=O)[C@H](CCCNC(=N)N)NC(=O)[C@@H](NC(=O)[C@H](CC(=O)O)NC(=O)[C@H](CC(C)C)NC(=O)[C@H](Cc1ccc(O)cc1)NC(=O)[C@H](CCCCN)NC(=O)[C@H](CO)NC(=O)[C@@H](NC(=O)[C@H](CC(=O)O)NC(=O)[C@H](CO)NC(=O)[C@@H](NC(=O)[C@H](Cc1ccccc1)NC(=O)[C@@H](NC(=O)CNC(=O)[C@H](CCC(N)=O)NC(=O)[C@H](CO)NC(=O)[C@@H](N)Cc1c[nH]cn1)[C@@H](C)O)[C@@H](C)O)C(C)C)[C@@H](C)O)C(C)C)C(=O)N[C@@H](CC(C)C)C(=O)N[C@@H](CO)C(=O)N[C@H](C(=O)O)[C@@H](C)O` [Example 38, N^ε24-[(4S)-4-carboxy-4-[[(4S)-4-carboxy-4-[[2-[2-[2-[[2-[2-[2-[[(4S)-4-carboxy-4-(17-carboxyheptadecanoylamino)butanoyl]amino]ethoxy]ethoxy]acetyl]amino]ethoxy]ethoxy]acetyl]amino]butanoyl]amino]butanoyl]-[Val10,Thr16,Glu21,Lys24,Leu27,Ser28]-Glucagon] (H-HSQGTFTSDVSKYLDTRRAQEFVK([γGlu-γGlu-AEEA-AEEA-γGlu-C18 diacid])WLLST-OH) and `CC[C@H](C)[C@H](NC(=O)[C@H](CC(=O)O)NC(=O)[C@H](CC(C)C)NC(=O)[C@H](Cc1ccc(O)cc1)NC(=O)[C@H](CCCCN)NC(=O)[C@H](CO)NC(=O)[C@H](Cc1ccc(O)cc1)NC(=O)[C@H](CC(=O)O)NC(=O)[C@H](CO)NC(=O)[C@@H](NC(=O)[C@H](Cc1ccccc1)NC(=O)[C@@H](NC(=O)CNC(=O)[C@H](CCC(N)=O)NC(=O)[C@H](CO)NC(=O)[C@@H](N)Cc1c[nH]cn1)[C@@H](C)O)[C@@H](C)O)C(=O)N[C@@H](CCCNC(=N)N)C(=O)N[C@@H](CCCNC(=N)N)C(=O)N[C@@H](C)C(=O)N[C@@H](CCC(N)=O)C(=O)N[C@@H](CC(=O)O)C(=O)N[C@@H](Cc1ccccc1)C(=O)N[C@H](C(=O)N[C@@H](CCCCNC(=O)CC[C@H](NC(=O)CC[C@H](NC(=O)COCCOCCNC(=O)COCCOCCNC(=O)CC[C@H](NC(=O)CCCCCCCCCCCCCCCCC(=O)O)C(=O)O)C(=O)O)C(=O)O)C(=O)N[C@@H](Cc1c[nH]c2ccccc12)C(=O)N[C@@H](CC(C)C)C(=O)N[C@@H](CC(C)C)C(=O)N[C@@H](CC(N)=O)C(=O)N[C@H](C(=O)O)[C@@H](C)O)C(C)C` [Example 8, N^ε24-[(4S)-4-carboxy-4-[[(4S)-4-carboxy-4-[[2-[2-[2-[[2-[2-[2-[[(4S)-4-carboxy-4-(17-carboxyheptadecanoylamino)butanoyl]amino]ethoxy]ethoxy]acetyl]amino]ethoxy]ethoxy]acetyl]amino]butanoyl]amino]butanoyl]-[Ile^16,Lys^24,Leu^27]-Glucagon] are within 1.5-fold of each other in “ThT assay [Lagtime]” value: 45 h for the first, 40 h for the second.

`CC(C)C[C@H](NC(=O)[C@H](Cc1c[nH]c2ccccc12)NC(=O)[C@H](CCCCNC(=O)CC[C@H](NC(=O)CC[C@H](NC(=O)COCCOCCNC(=O)COCCOCCNC(=O)CC[C@H](NC(=O)CCCCCCCCCCCCCCCCC(=O)O)C(=O)O)C(=O)O)C(=O)O)NC(=O)[C@@H](NC(=O)[C@H](Cc1ccccc1)NC(=O)[C@H](CC(=O)O)NC(=O)[C@H](CCC(N)=O)NC(=O)[C@H](C)NC(=O)[C@H](CCCNC(=N)N)NC(=O)[C@H](CCCNC(=N)N)NC(=O)[C@@H](NC(=O)[C@H](CCC(=O)O)NC(=O)[C@H](CC(C)C)NC(=O)[C@H](Cc1ccc(O)cc1)NC(=O)[C@H](CCCCN)NC(=O)[C@H](CO)NC(=O)[C@H](Cc1ccc(O)cc1)NC(=O)[C@H](CC(=O)O)NC(=O)[C@H](CO)NC(=O)[C@@H](NC(=O)[C@H](Cc1ccccc1)NC(=O)[C@@H](NC(=O)CNC(=O)[C@H](Cc1c[nH]cn1)NC(=O)[C@H](CO)NC(=O)[C@@H](N)Cc1c[nH]cn1)[C@@H](C)O)[C@@H](C)O)[C@@H](C)O)C(C)C)C(=O)N[C@@H](CC(C)C)C(=O)N[C@@H](CC(N)=O)C(=O)N[C@H](C(=O)O)[C@@H](C)O` [Example 9, N^ε24-[(4S)-4-carboxy-4-[[(4S)-4-carboxy-4-[[2-[2-[2-[[2-[2-[2-[[(4S)-4-carboxy-4-(17-carboxyheptadecanoylamino)butanoyl]amino]ethoxy]ethoxy]acetyl]amino]ethoxy]ethoxy]acetyl]amino]butanoyl]amino]butanoyl]-[His^3,Glu^15,Thr^16,Lys^24,Leu^27]-Glucagon] (H-HSHGTFTSDYSKYLETRRAQDFVK([γGlu-γGlu-AEEA-AEEA-γGlu-C18 diacid])WLLNT-OH) and `CC(C)C[C@H](NC(=O)[C@H](Cc1ccc(O)cc1)NC(=O)[C@H](CCCNC(=N)N)NC(=O)[C@H](CO)NC(=O)[C@H](Cc1ccc(O)cc1)NC(=O)[C@H](CC(=O)O)NC(=O)[C@H](CO)NC(=O)[C@@H](NC(=O)[C@H](Cc1ccccc1)NC(=O)[C@@H](NC(=O)CNC(=O)[C@H](CCC(N)=O)NC(=O)[C@H](CO)NC(=O)[C@@H](N)Cc1c[nH]cn1)[C@@H](C)O)[C@@H](C)O)C(=O)N[C@@H](CCC(=O)O)C(=O)N[C@@H](CO)C(=O)N[C@@H](CCCNC(=N)N)C(=O)N[C@@H](CCCNC(=N)N)C(=O)N[C@@H](C)C(=O)N[C@@H](CCC(N)=O)C(=O)N[C@@H](CCC(=O)O)C(=O)N[C@@H](Cc1ccccc1)C(=O)N[C@H](C(=O)N[C@@H](CCCCNC(=O)CC[C@H](NC(=O)CC[C@H](NC(=O)COCCOCCNC(=O)COCCOCCNC(=O)CC[C@H](NC(=O)CCCCCCCCCCCCCCC(=O)O)C(=O)O)C(=O)O)C(=O)O)C(=O)N[C@@H](Cc1c[nH]c2ccccc12)C(=O)N[C@@H](CC(C)C)C(=O)N[C@@H](CC(C)C)C(=O)N[C@@H](CO)C(=O)N[C@H](C(=O)O)[C@@H](C)O)C(C)C` [Example 71, N^ε24-[(4S)-4-carboxy-4-[[(4S)-4-carboxy-4-[[2-[2-[2-[[2-[2-[2-[[(4S)-4-carboxy-4-(15-carboxypentadecanoylamino)butanoyl]amino]ethoxy]ethoxy]acetyl]amino]ethoxy]ethoxy]acetyl]amino]butanoyl]amino]butanoyl]-[Arg12,Glu15,Glu21,Lys24,Leu27,Ser28]-Glucagon] (H-HSQGTFTSDYSRYLESRRAQEFVK([γGlu-γGlu-AEEA-AEEA-γGlu-C16 diacid])WLLST-OH) are the same in “ThT assay [Lagtime]” value: 45 h for the first, 45 h for the second.
